Assay results as given in the RNAGym collection of RNA variant scans (doi:10.7554/elife.90254).
Read counts are not given, so values of variants with three or more changes are uncertain.

B1: OR4K15 (parent)
chain: GUUAACGGUCAUAGGCCAUGGAAACUAGGAGCACCAUUUCGCUGCCAGUGAAGAAAUGAACAAAGAAAAUCUGGGCCAGGCAGGCAUCAAAAGAAAUAGUCUUGCGCUCAACCAGAAAGUCUGUAAUCAUUUUAAGGGUA

Variants of: B1
Assay: self-cleavage, relative activity (ratio to wild type); higher = more cleavage; in vitro, sequencing; the parent is a self-cleaving ribozyme

Row | Variant | self-cleavage
1 | GUUAACGGUCAUAGGCCAUGGAAGCUAGGAGCACCAUUUAGCUGCCAGUGAAGAAAUGAACAAAGAAAAUCUGGGCCAGGCAGGCAUCGAAGGAAAUAGUCUUGCGCUCAACCAGAAAGUCUGUAACCAUUUUAAGGGUA [A24G C40A A89G A92G U127C] | 1.18
2 | GUUAACGGUCAUAGGCCAUGGAAGCUAGGAGCACCAUUUCGCUGCCAGUGAAGAAAUGAACAAAGAAAAUCUGGGCCAGGUAGGCAUCAAAAGAAAUAGUCUUGCGCUCAACCAGAAAGUCUGUAAUCAUUCUAAGGGUA [A24G C81U U132C] | 0.74
3 | GUUAACGGUCAUAGGCCAUGGAAGCUAGAGGCACCAUUUCGCUGCCAGUGAAGAAAUGAACAAAGAAAAUCUGGGCCAGGCAGGCAUCAAAAGAAAUAGUCUUGCGCUCAACCAGAAAGUCUGUAAUCAUUUUAAGGGUG [A24G G29A A30G A140G] | 1.42
4 | GUUAACGGUCAUAGGCCAUGGAAGCUAGAAGCACCAUUUCGCUGCCAGUGAAGAAAUGGACAAAGAAAAUCUGGGCCAGGCAGGCAUCAAAAGAAAUAGUCUUGCACUCAGCCAGAAAGUCUGUAAUCAUUUUAAGGGUA [A24G G29A A59G G106A A111G] | 0.02
5 | GUUAACGGUCAUAGGCCAUGGAAGCUAGGAGCACCAUUUCACCGCCAGUGAAGAAAUGAACAAAGAAAAUCUGGGCCAGGCAGGCAUCAAAAGAAGUAGUCUUGCGCUCAACCAGAGAGUCUGUAAUCAUUUUAAGGGUA [A24G G41A U43C A96G A117G] | 1.49
6 | GUUAACGGUCAUAGGCCAUGGAAGCUAGGAGCACCAUUUCGCUACCAGUGAAGAAAUGAACAAAGAAAAUCUGGGCCAGGCAGGCAUCAAAAGAAACAGCCUUGCGCUCAGCCAGAAAGUCUGUAAUCAUUUUAAGGGUA [A24G G44A U97C U100C A111G] | 0.05
7 | GUUAACGGUCAUAGGCCAUGGAAGCUAGGAGCACCAUUUCGCUCCCAGUGAAGAAAUGAACAAAGAAAAUCUGGGCCAGGCAGGCAUCAAAAGGAAUAGUCUUGCGCUCAACCAGAAAGUCUGUAAUCAUUUUAAGGGUA [A24G G44C A94G] | 1.6
8 | GUUAACGGUCAUAGGCCAUGGAAGCUAGGAGCACCAUUUCGCUGCCAAUGAAGAAAUGAACAAAGAAAAUCCGGACCAGGCAGGCAUCAAAAGAAAUAGUCUUGCGCUCAACCAGAAAGUCUGUAAUCAUUCUAAGGGUA [A24G G48A U72C G75A U132C] | 0.25
9 | GUUAACGGUCAUAGGCCAUGGAAGCUAGGAGCACCAUUUCGCUGCCAGUUGAGAAAUGAACAAAGAAAAUCUGGGCCAGGCAGGCAUCAAAAGAAAUAGUCUUGCGCUCAACCAGAAAGUCUGUAAUCAUUUUAAGGGUA [A24G G50U A51G] | 1.06
10 | GUUAACGGUCAUAGGCCAUGGAAGCUAGGAGCACCAUUUCGCUGCCAGUGAAGAAAUUAACAAAGAAAAUCUGGGCCAGGCAGGCAUCAAAAGAAAUAGUCUUGCGCUCAACCAGAAAGUCUGUAAUCAUUCUAAGGGUA [A24G G58U U132C] | 1.99
11 | GUUAACGGUCAUAGGCCAUGGAAGCUAGGAGCACCAUUUCGCUGCCAGUGAAGAAAUGAACAAAGAAAAUCUGGGCCAAGCAGGCAUCAAAAGGAAUAGUCUUGCGCUCAACCUGAAAGUCUGUGAUCAUUUUAAGGGUA [A24G G79A A94G A114U A125G] | 0.01
12 | GUUAACGGUCAUAGGCCAUGGAAGCUAGGAGCACCAUUUCGCUGCCAGUGAAGAAAUGAACAAAGAAAAUCUGGGCCAGGCAUGCGUCAAAAGAAAUAGUCUUGCGCUCAACCAGAAAGUCUGUAAUCAUUUUAAGGGUA [A24G G83U A86G] | 0.61
13 | GUUAACGGUCAUAGGCCAUGGAAGCUAGGAGCACCAUUUCGCUGCCAGUGAAGAAAUGAACAAAGAAAAUCUGGGCCAGGCAGGCAUCAAAAGAAAUAGUCUUGCGCUCAACCAUAAAGUCUGUAUUCAUUUUAAGGGUA [A24G G115U A126U] | 0.36
14 | GUUAACGGUCAUAGGCCAUGGAAGCCAGGAGCACCAUUUCGCUGCCUGUGAAGAAAUGAACAAAGAAAAUCUGGGCCAGGCAGGCAUCAAAAGAAAUAGUCUCGCGCUCAACCAGAAAGUCUGUAAUCAUUUUAAGGGUA [A24G U26C A47U U103C] | 0.49
15 | GUUAACGGUCAUAGGCCAUGGAAGCCAGGAGCACCAUUUCGCUGCCAGUGAAGAAAUGGACAAAGAAAAUCUGGGCCAGGCAGGCAUCAAAAGAAAUAGUCUUGCGCUCAACCAGAAAGUCUGUAAUCAUUUUAAGGGUA [A24G U26C A59G] | 0.88
16 | GUUAACGGUCAUAGGCCAUGGAAGCUAGGAGCACCACUUCGCUGCCAGUGGAGAAAUGAACAAAGAGAAUCUGGACCAGGCAGGCAUCAAAAGAAAUAGUCUUGCGCUCAACCAGAAAGUCUGUAAUCAUUUUAAGGGUA [A24G U37C A51G A67G G75A] | 0.12
17 | GUUAACGGUCAUAGGCCAUGGAAGCUAGGAGCACCACUUCGCUGCCAGUGAAGAAAUGAACAAAGAUAAUCUGGGCCAGGCAGGCAUCAAAAGAAACAGUCUUGCGCUCAACCAGAAAGUCUGUAAUCAUUUUAAGGGUA [A24G U37C A67U U97C] | 1.49
18 | GUUAACGGUCAUAGGCCAUGGAAGCUAGGAGCACCACUUCGCUGCCAGUGAAGAAAUGAACAAAGAAAAUCUGGGCCAGGCAGGCAUCAAAAGAAAUAGUCUUGCGCUCAACCAGAGAGUCUGUAAUCAUUUUAAGGGUA [A24G U37C A117G] | 1.51
19 | GUUAACGGUCAUAGGCCAUGGAAGCUAGGAGCACCACUUCGCCGCCAGUGAAGAAAUGAACAGAGGAAAUCUGGGCCAGGCAGGCAUCAAAAGAAGUAGUCUUGUGCUCAACCAGAAAGUCUGUAAUCAUUUUAAGGGUA [A24G U37C U43C A63G A66G A96G C105U] | 0.11
20 | GUUAACGGUCAUAGGCCAUGGAAGCUAGGAGCACCACUUCGCCGCCAGUGAAGAAAUGAACAAAGAAAGUCUGGGCCAGGCAGGCAUCAAAAGAAAUAGUCUUGCGCUCAACCAGAAAGUCUGUAAUCAUUUUAAGGGUA [A24G U37C U43C A69G] | 2.22
